Measured values reported in PubChem BioAssay AID504444 (National Center for Advancing Translational Sciences (NCATS), 2011).
Among all 360,000 compounds or so, about 7,500 (2.1%) were called active. About 20% were inconclusive and are not listed. Calls follow the shape of the dose curve; as a rule, active = well fitted inhibition curve with a large enough effect; inconclusive = small, poorly fitted or top-dose-only effect, or effect the other way; inactive = flat fitted curve, though single readings scatter. The list shows a part of the results, in another mix than the full data.
% is scaled to controls: 0 for no effect and ±100 for the full control effect; potency is read from the fitted curve at half-maximal effect.

Assay: Nrf2 qHTS screen for inhibitors; also: nearly all actives have a fitted effect of over 60% in size
Conditions: A549 ARE-Fluc reporter, luciferase luminescence, 18-24 h; series mostly up to 46 µM; activity change, negative = inhibition: at the top concentration
Method in brief: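 Cells were seeded and rested 2 h, then exposed to compounds for 18-24 h. CellTiter-Fluor was read first as a viability measure. BugLite was added 15 min before the final luminescent read of ARE-luciferase activity in A549 cells.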
In the case of `CCOc1ccccc1NC(=O)c1nc(S(=O)(=O)Cc2cccc(C)c2)ncc1Cl`, the “activity change, negative = inhibition” value is reported as inactive: 13.1%.
In the case of `CC(=O)c1ccccc1OCc1ccc(S(=O)(=O)Cc2ccccc2)cc1`, the Potency is reported as active: 20.6 µM.
For `CCOC(=O)/C=C1/SCC(=O)N1CC(=O)Nc1ccc2c(c1)CCC2`, the “activity change, negative = inhibition” value was inactive: 3.06%.
For `COc1ccc(C)cc1NC(=O)CN1C(=O)COc2ccc(S(=O)(=O)N3CCC(C)CC3)cc21`, the “activity change, negative = inhibition” value was inactive: 7.49%.
With `CC(C)(C)OC(=O)N[C@H](Cc1ccccc1)C(=O)N1CCC(C(=O)O)CC1` the “activity change, negative = inhibition” value was inactive: -4.16%.
For `COc1cccc(CNc2ccc3c(c2)ncn3C)c1OC`, the “activity change, negative = inhibition” value was inactive: 0.813%.
With `Cc1ccccc1NC(=O)/C(C#N)=C/c1ccsc1` the “activity change, negative = inhibition” value was inactive: 6.99%.
With `COc1ccc(NS(=O)(=O)c2nnc(NC(=O)c3ccccc3F)s2)cc1` the “activity change, negative = inhibition” value was inactive: 5.23%.
For `COc1ccc(/C=C2/CCOC2=O)cc1`, the “activity change, negative = inhibition” value was inactive: 22.4%.
For `Cc1ccc(CN2C(=O)[C@H]3Cc4c([nH]c5ccccc45)C(C)(C)N3C2=O)cc1`, the “activity change, negative = inhibition” value was inactive: 0.201%.
For `COc1ccccc1-n1cnc2c(c1=O)c1nc3ccccc3nc1n2-c1ccc(C)c(C)c1`, the Potency was active: 5.8 µM.
For `Cc1ccc(NC(=O)Cn2nnc(C(=O)NCc3cccs3)c2N)cc1Cl`, the “activity change, negative = inhibition” value was inactive: -9.95%.
With `Cc1c(N2C(=O)/C(=C/C3CC=CCC3)SC2=S)c(=O)n(-c2ccccc2)n1C` (stereo unspecified) the “activity change, negative = inhibition” value was inactive: -27.2%.
With `CC1CCN(CC(=O)N2CCCc3c2c(=O)oc2ccc(OCc4ccccc4)cc32)CC1` the “activity change, negative = inhibition” value was inactive: -20%.
With `Nc1cc(S(=O)(=O)Nc2ccccc2Cl)ccc1N1CCCCC1` the Potency was active: 7.31 µM.
With `NS(=O)(=O)c1ccc(NC(=O)c2cc(-c3cccs3)nc3ccccc23)cc1` the activity change, negative = inhibition was inactive: 10.1% [at 9.27 µM].
In the case of `Cc1noc(C)c1-c1ccc2ncnc(NC(C)c3ccco3)c2c1` (stereo unspecified), the “activity change, negative = inhibition” value is reported as inactive: -25%.
With `COc1cc(CNCc2ccc(OC)cc2OC)cc(OC)c1` the Potency was active: 7.31 µM.
In the case of `Cc1ccc(NC(=O)C2=CC(c3cccs3)=NS(=O)(=O)N2C)cc1`, the “activity change, negative = inhibition” value is reported as inactive: -22.7%.
With `CC(C)c1ccc2c(c1)CC[C@H]1[C@](C)(CN)CCC[C@]21C` the “activity change, negative = inhibition” value was inactive: 2.28%.
In the case of `CCCCNC(=O)CCC(=O)NNc1nc2ccccc2c2nc(-c3ccccc3)nn12`, the “activity change, negative = inhibition” value is reported as inactive: 11.2%.
For `O=C1OC[C@@H]2CCCN2C(=O)[C@@H](CC(=O)N(CCO)Cc2ccccc2)C/C=C\CC[C@H]1Cc1ccc(F)cc1`, the “activity change, negative = inhibition” value was inactive: -13.4%.
For `CCOc1ccc(N=C(/C(C(=O)C(=O)N2CCOCC2)=C(/O)c2ccccc2)c2ccccc2)cc1`, the “activity change, negative = inhibition” value was inactive: 20.4%.
With `N#C/C(=C\c1ccc(-c2ccccc2C(=O)O)o1)c1nc2ccccc2[nH]1` the “activity change, negative = inhibition” value was inactive: 3.7%.
For `Cc1nnc(Sc2c(-c3ccccc3)c3ccc(Cl)cc3[nH]c2=O)s1`, the Potency was active: 18.4 µM.
For `C=C1CCN([C@@H](CC(C)C)C(=O)NCc2ccc(Cl)c(Cl)c2)S(=O)(=O)c2ccccc21`, the “activity change, negative = inhibition” value was inactive: -16.1%.
